# Laboratory results taken from the supplement of paper PMC8728848.
# This is one part of the list.
# Assays:
# Experiment in all cases: glycan array binding signal (z-score within array); higher = stronger binding
# Details in all cases: glycan notation: IUPAC condensed, linker removed; mutation: N224Q
# [1] = target: Neu5Ac(a2-6)Gal(b1-4)GlcNAc(b1-2)Man(a1-3)[Neu5Ac(a2-3)Gal(b1-4)GlcNAc(b1-2)Man(a1-6)]Man(b1-4)GlcNAc(b1-4)GlcNAc
# How it was run: (§1)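 From the Consortium for Functional Glycomics database, 3228 arrays were curated, keeping only those whose protein sequence was available. Binding is given as a within-array Z-score averaged across arrays sharing a protein sequence and across linkers. Negative Z-scores can be read as non-binding.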
# [2] = target: Neu5Ac(a2-6)Gal(b1-4)GlcNAc(b1-2)Man(a1-3)[Neu5Ac(a2-6)Gal(b1-4)GlcNAc(b1-2)Man(a1-6)]Man(b1-4)GlcNAc(b1-4)GlcNAc
# How it was run: as §1
# [3] = target: Neu5Ac(a2-6)Gal(b1-4)GlcNAc(b1-2)Man(a1-3)[Neu5Ac(a2-6)Gal(b1-4)GlcNAc(b1-2)Man(a1-6)]Man(b1-4)GlcNAc(b1-4)[Fuc(a1-6)]GlcNAc
# How it was run: as §1
# [4] = target: Neu5Ac(a2-6)Gal(b1-4)GlcNAc(b1-2)Man(a1-6)Man(b1-4)GlcNAc(b1-4)GlcNAc
# How it was run: as §1
# [5] = target: Neu5Ac(a2-6)Gal(b1-4)GlcNAc(b1-2)Man(a1-6)[Gal(b1-4)GlcNAc(b1-2)Man(a1-3)]Man(b1-4)GlcNAc(b1-4)GlcNAc
# How it was run: as §1
# [6] = target: Neu5Ac(a2-6)Gal(b1-4)GlcNAc(b1-2)Man(a1-6)[GlcNAc(b1-2)Man(a1-3)]Man(b1-4)GlcNAc(b1-4)GlcNAc
# How it was run: as §1
# [7] = target: Neu5Ac(a2-6)Gal(b1-4)GlcNAc(b1-2)Man(a1-6)[Man(a1-3)]Man(b1-4)GlcNAc(b1-4)GlcNAc
# How it was run: as §1
# [8] = target: Neu5Ac(a2-6)Gal(b1-4)GlcNAc(b1-2)[Neu5Ac(a2-6)Gal(b1-4)GlcNAc(b1-4)]Man(a1-3)[GlcNAc(b1-4)][Neu5Ac(a2-6)Gal(b1-4)GlcNAc(b1-2)[Neu5Ac(a2-6)Gal(b1-4)GlcNAc(b1-6)]Man(a1-6)]Man(b1-4)GlcNAc(b1-4)GlcNAc
# How it was run: as §1
# [9] = target: Neu5Ac(a2-6)Gal(b1-4)GlcNAc(b1-2)[Neu5Ac(a2-6)Gal(b1-4)GlcNAc(b1-4)]Man(a1-3)[GlcNAc(b1-4)][Neu5Ac(a2-6)Gal(b1-4)GlcNAc(b1-4)Man(a1-6)]Man(b1-4)GlcNAc(b1-4)GlcNAc
# How it was run: as §1
# [10] = target: Neu5Ac(a2-6)Gal(b1-4)GlcNAc(b1-2)[Neu5Ac(a2-6)Gal(b1-4)GlcNAc(b1-6)]Man(a1-6)[Neu5Ac(a2-6)Gal(b1-4)GlcNAc(b1-2)Man(a1-3)][GlcNAc(b1-4)]Man(b1-4)GlcNAc(b1-4)GlcNAc
# How it was run: as §1
# [11] = target: Neu5Ac(a2-6)Gal(b1-4)GlcNAc(b1-3)Gal(b1-3)GlcNAc
# How it was run: as §1
# [12] = target: Neu5Ac(a2-6)Gal(b1-4)GlcNAc(b1-3)Gal(b1-4)GlcNAc
# How it was run: as §1
# [13] = target: Neu5Ac(a2-6)Gal(b1-4)GlcNAc(b1-3)Gal(b1-4)GlcNAc(b1-2)Man(a1-3)[Neu5Ac(a2-6)Gal(b1-4)GlcNAc(b1-3)Gal(b1-4)GlcNAc(b1-2)Man(a1-6)]GalNAc
# How it was run: as §1
# [14] = target: Neu5Ac(a2-6)Gal(b1-4)GlcNAc(b1-3)Gal(b1-4)GlcNAc(b1-3)Gal(b1-4)GlcNAc
# How it was run: as §1
# [15] = target: Neu5Ac(a2-6)Gal(b1-4)GlcNAc(b1-3)Gal(b1-4)GlcNAc(b1-3)Gal(b1-4)GlcNAc(b1-2)Man(a1-3)[Neu5Ac(a2-6)Gal(b1-4)GlcNAc(b1-3)Gal(b1-4)GlcNAc(b1-3)Gal(b1-4)GlcNAc(b1-2)Man(a1-6)]GalNAc
# How it was run: as §1
# [16] = target: Neu5Ac(a2-6)Gal(b1-4)GlcNAc(b1-3)Gal(b1-4)GlcNAc(b1-3)GalNAc
# How it was run: as §1
# [17] = target: Neu5Ac(a2-6)Gal(b1-4)GlcNAc(b1-3)Gal(b1-4)GlcNAc(b1-3)[Neu5Ac(a2-6)Gal(b1-4)GlcNAc(b1-3)Gal(b1-4)GlcNAc(b1-6)]GalNAc
# How it was run: as §1
# [18] = target: Neu5Ac(a2-6)Gal(b1-4)GlcNAc(b1-3)Gal(b1-4)GlcNAc(b1-6)[Gal(b1-3)]GalNAc
# How it was run: as §1
# [19] = target: Neu5Ac(a2-6)Gal(b1-4)GlcNAc(b1-3)Gal(b1-4)[Fuc(a1-3)]GlcNAc(b1-3)Gal(b1-4)[Fuc(a1-3)]GlcNAc
# How it was run: as §1
# [20] = target: Neu5Ac(a2-6)Gal(b1-4)GlcNAc(b1-3)GalNAc
# How it was run: as §1
# [21] = target: Neu5Ac(a2-6)Gal(b1-4)GlcNAc(b1-3)[Neu5Ac(a2-6)Gal(b1-4)GlcNAc(b1-6)]GalNAc
# How it was run: as §1
# [22] = target: Neu5Ac(a2-6)Gal(b1-4)GlcNAc(b1-6)GalNAc
# How it was run: as §1
# [23] = target: Neu5Ac(a2-6)Gal(b1-4)GlcNAc(b1-6)[Gal(b1-3)GlcNAc(b1-3)]Gal(b1-4)Glc
# How it was run: as §1
# [24] = target: Neu5Ac(a2-6)Gal(b1-4)GlcNAc(b1-6)[Gal(b1-3)]GalNAc
# How it was run: as §1
# [25] = target: Neu5Ac(a2-6)Gal(b1-4)GlcNAc6S
# How it was run: as §1
# Neu5Ac(a2-6)GalNAc = target: Neu5Ac(a2-6)GalNAc
# How it was run: as §1
# [26] = target: Neu5Ac(a2-6)GalNAc(b1-4)GlcNAc
# How it was run: as §1
# [27] = target: Neu5Ac(a2-6)GalNAc(b1-4)GlcNAc6S
# How it was run: as §1
# [28] = target: Neu5Ac(a2-6)GlcNAc(b1-4)GlcNAc
# How it was run: as §1
# [29] = target: Neu5Ac(a2-6)GlcNAc(b1-4)GlcNAc(b1-4)GlcNAc
# How it was run: as §1
binder,measurement,setting,value
AAL (Aleuria aurantia) (protein) MPTEFLYTSKIAAISWAATGGRQQRVYFQDLNGKIREAQRGGDNPWTGGSSQNVIGEAKLFSPLAAVTWKSAQGIQIRVYCVNKDNILSEFVYDGSKWITGQLGSVGVKVGSNSKLAALQWGGSESAPPNIRVYYQKSNGSGSSIHEYVWSGKWTAGASFGSTVPGTGIGATAIGPGRLRIYYQATDNKIREHCWDSNSWYVGGFSASASAGVSIAAISWGSTPQIRVYWQKGREELYEAAYGGSWNTPGQIKDASRPTPSLPDTFIAANSSGNIDISVFFQASGVSLQQWQWISGKGWSIGAVVPTGTPAGW,glycan array binding signal (z-score),[1],-0.315
same,glycan array binding signal (z-score),[2],-0.305
same,glycan array binding signal (z-score),[3],1.76
same,glycan array binding signal (z-score),[4],-0.316
same,glycan array binding signal (z-score),[5],-0.318
same,glycan array binding signal (z-score),[6],-0.327
same,glycan array binding signal (z-score),[7],-0.31
same,glycan array binding signal (z-score),[8],-0.299
same,glycan array binding signal (z-score),[9],-0.318
same,glycan array binding signal (z-score),[10],-0.303
same,glycan array binding signal (z-score),[11],-0.324
same,glycan array binding signal (z-score),[12],-0.324
same,glycan array binding signal (z-score),[13],-0.277
same,glycan array binding signal (z-score),[14],-0.32
same,glycan array binding signal (z-score),[15],-0.085
same,glycan array binding signal (z-score),[16],-0.309
same,glycan array binding signal (z-score),[17],-0.209
same,glycan array binding signal (z-score),[18],-0.302
same,glycan array binding signal (z-score),[19],-0.195
same,glycan array binding signal (z-score),[20],-0.305
same,glycan array binding signal (z-score),[21],-0.313
same,glycan array binding signal (z-score),[22],-0.305
same,glycan array binding signal (z-score),[23],-0.308
same,glycan array binding signal (z-score),[24],-0.307
same,glycan array binding signal (z-score),[25],-0.32
same,glycan array binding signal (z-score),Neu5Ac(a2-6)GalNAc,-0.334
same,glycan array binding signal (z-score),[26],-0.323
same,glycan array binding signal (z-score),[27],-0.308
same,glycan array binding signal (z-score),[28],-0.327
same,glycan array binding signal (z-score),[29],-0.283
